Data from PubChem BioAssay AID1347041 (National Center for Advancing Translational Sciences (NCATS), 2019).
Several values for one entry are separate records, joined by “and”; a condition that tells them apart may be missing. Equal values may be shown once. Hit rate of the full screen: of about 480,000 compounds, about 740 (0.15%) were called active. Inconclusive results, whose numbers are uncertain, are shown with a selection of clear calls. Rule as the data show it: active = activity change below about -30%; inconclusive = mostly about -25% to -30%; inactive = weaker than that. More than one record can exist for a structure, and the calls need not agree.

Biological target: L-lactate dehydrogenase A chain (Homo sapiens) (UniProt P00338)
Assay: qHTS assay for inhibitors of human lactate dehydrogenase;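 also: values are at about 110 or 230 µM; plate controls were DMSO wells for no effect and wells without enzyme for full effect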
Details: purified LDHA, NADH/diaphorase-resazurin fluorescence; active compounds read low
How it was run: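 LDH5 2 nM; NADH 0.06 mM, pyruvate 0.2 mM; 200 mM Tris pH 7.4, EDTA, Tween-20; 5 min RT. Detection: diaphorase 0.133 mg/mL + resazurin 37 µM, fluorescence ex540/em590 at 0 and 20 min; normalized to enzyme-free and DMSO wells.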

Activity change, active:
Cc1ccc(C)c(NC(=O)Cn2c(-c3nonc3N)nc3ccccc32)c1 -32.5%
COc1cccc(CN2CCC(C(=O)N3CCN(Cc4ccc5c(c4)OCO5)CC3)CC2)c1 -33.1%
O=C(NN1CCOCC1)c1ccn(COc2ccc(Br)cc2)n1 -32.9%
CCN1CCN(CCOc2cccc(Cl)c2Cl)CC1 -35.9%
O=C(Nc1ccc(-n2cccn2)c(F)c1)C1CCCN(C(=O)c2ccoc2)C1 (stereo unspecified) -30.9%
C1=CC2CC1CC2CN1CCN(Cc2ccccc2)CC1 (stereo unspecified) -31.6%
O=C(N/N=C/c1ccc(Br)cc1)c1ccc(Br)o1 -31.7%
N#Cc1nc(-c2ccc(F)cc2)oc1N1CCN(Cc2ccccc2)CC1 -34.4%
O=C(COCc1nc2ccccc2c(=O)[nH]1)Nc1nc(-c2ccc3c(c2)CCC3)cs1 -30.6%
O=C(O)COc1ccccc1-c1nc(-c2ccccc2)c(-c2ccccc2)[nH]1 -43.4%
COc1ccc(/C=C2\C(=O)ON=C2c2ccccc2)cc1 -31.8%
O=c1c2cc(F)ccc2sn1-c1ccccc1Cl -42.9%
CCN(CC(=O)Nc1ccc(NC(C)=O)cc1)CC(=O)Nc1ccc(Cl)c(Cl)c1 -45.2%
COc1ccc2oc(=O)cc(-c3cc4cccc(OC)c4o3)c2c1 -33.3%

Activity change, inconclusive:
CCOc1cc(C#N)ccc1OCc1nc(-c2ccc(Br)cc2)no1 -26.4%
CCCNC(=O)COCc1cc(-c2ccc3c(c2)OCO3)on1 -29.2%
O=C(Nc1cccc2ncccc12)c1ccccc1Cl -26.1%
Cc1cc2oc(=O)cc(CN3CCN(c4ccc(F)cc4)CC3)c2cc1C -26.6%
COc1cccc(OC)c1C(=O)N1CCN(Cc2cccnc2)CC1 -27.3%
CCOc1cc(/C=C(/C#N)c2ccc(F)cc2)cc(Cl)c1OCc1ccccc1C#N -28.6%
CSc1ccc(Cl)c(C(=O)Nc2ccc3c(c2)CCC3)c1 -28.5%
C[C@@H]1CN([C@@H](C)CO)C(=O)CCCn2nncc2CO[C@@H]1CN(C)S(C)(=O)=O -25.9%
Cc1ccc(C)c(C(=O)Nc2ccc(Cl)c(C(F)(F)F)c2)c1 -25.5%
Cn1c(=O)c2c(ncn2CC(=O)N2CCN(C(c3ccccc3)c3ccccc3)CC2)n(C)c1=O -27.2%
CC1C(c2ccccc2)=[N+]([O-])C(C)(c2ccc(F)cc2)N1O (stereo unspecified) -28.1%
NC(=O)C1CCCN(c2nc(-c3ccncc3)nc3ccccc23)C1 (stereo unspecified) -27.7%
CCCCCCCCCCCCCCCC(O)C[N+](C)(C)CCO (stereo unspecified) -48.4%
CC(Oc1cccc(Oc2ccccc2)c1)C(=O)c1ccc(F)c(F)c1 (stereo unspecified) -25.5%
O=c1c2ccc(Cl)cc2nc2n1CC/C2=C/c1cccc(O)c1 -28.6%
Cc1ccc(/C=C(/C#N)C(=O)Nc2cccc3ncccc23)cc1 -25.3%
COC(=O)c1cn(CC(=O)NC(C2CC2)C2CC2)c2ccccc12 -27.4%
N#CC1C(=O)NC(c2ccccc2)=CC1c1ccccc1 (stereo unspecified) -28.9%
NC(Cc1ccc(C(F)(F)F)cc1)c1csc(NC(=O)Nc2ccccc2Cl)n1 (stereo unspecified) -28.8%
COc1cc(C(=O)OCc2cccc(C#N)c2)cc(OC)c1C -29.9%
COc1ccc2cc(C(=O)NCC(=O)Nc3cccc(C)c3C)c(C)nc2c1 -25.2%
COc1ccc(-c2nc3n(c2C(=O)Nc2cccc(C(F)(F)F)c2)CCS3(=O)=O)cc1 -26.9%
O=C(NCc1cccs1)c1ccc2ccccc2n1 -27.7%
c1ccc(N2CCN(Cc3ccsc3)CC2)nc1 -29.2%
CCSc1nn(C(C)C)c2nc3c(c(=O)n12)C(C)(CC)Cc1ccccc1-3 (stereo unspecified) -25%
CCc1ccc2cc(-c3ccccc3)cn2c1 -26.1%
CCOc1ccccc1NC(=O)Cc1c(C)[nH]n(-c2nc(-c3ccc(Cl)cc3)cs2)c1=O -28.7%
CCC(=O)Oc1cccc2cc(-c3nc(-c4ccc(OC)cc4)no3)c(=O)oc12 -25.9%
CCC(=O)N(C)C(c1ccccc1)c1c[nH]c2ccccc12 (stereo unspecified) -26.1%
COc1ccccc1N1C(=O)C(Cc2ccccc2)N=C1N1CCN(C)CC1 (stereo unspecified) -29.7%
COc1ccc(C(=O)C(C)Cl)c(OC)c1 (stereo unspecified) -26.1%
CCOC(=O)C1CCN(c2nc3ccccc3nc2C(C#N)C(=O)NCCOC)CC1 (stereo unspecified) -26.7%
COc1ccccc1CNC(=O)C1CCCN(c2nc3ccccc3n3cccc23)C1 (stereo unspecified) -28%
Cc1nc2cc(NC(=O)COc3ccc(C(C)C)c(C)c3)ccc2o1 -25.2%
O=C(Nc1cccc(Cl)c1)c1ccc2c(Cl)c3c(nc2c1)CCCC3 -25.5%
Cc1ccc(NC(=O)c2cc[n+]([O-])cc2)cc1Cl -25.1%
CC(C)(C)c1ccc(/C=C2\Oc3cc(OS(C)(=O)=O)ccc3C2=O)cc1 -28.5%
CCn1c(SCC(=O)c2ccc(Cl)s2)nnc1-c1ccccc1 -25.1%
CCn1c(SCC(=O)NCc2ccccc2)nnc1C(CO)NC(=O)c1ccccc1 (stereo unspecified) -28.7%
COCCn1c(SCCN2CCCCC2)nc2ccccc2c1=O -28.1%
O=C(NCc1ccccc1Cl)C1CCCN(c2cnc3ccccc3n2)C1 (stereo unspecified) -27.6%
O=C(CSc1ccc2ccccc2n1)Nc1ccc2c(c1)OCCCO2 -28.6%
O=[N+]([O-])c1ccccc1OCCOCCOc1cccc2cccnc12 -28.2%
O=S1(=O)NCC(O)c2sccc21 (stereo unspecified) -25.9%
O=C1CCCc2c1cc(C(=O)NC1CCCCC1)c(=O)n2-c1ccc(C(F)(F)F)cc1 -29.6%
COc1ccc2c(CCNC(=O)CNc3nc(Cl)nc4nc[nH]c34)c[nH]c2c1 -26.1%
Fc1cccc(CSc2c[nH]c3ccccc23)c1 -26.6%
CC(=O)Oc1[nH]c(=O)c2cccc3c2c1CCC3 -26.8%
O=C(CNCC1CCCO1)Nc1ccccc1-n1cccc1 (stereo unspecified) -26.4%
Cc1ccc2nc(-c3ccc(NC(=O)c4ccco4)cc3)[nH]c2c1 -27%
CCOC(=O)COc1ccc2c(=O)c(Oc3ccccc3)c(C(F)(F)F)oc2c1 -27.1%

Activity change, inactive:
O=C(c1cc(=O)[nH]c2ccccc12)N1CCC(CCc2ccc(O)cc2)CC1 1.25%
CSc1ccc(CN(C)C(=O)/C=C/c2cccs2)cc1 8.29%
COc1cccc(-n2c(SC)nnc2-c2cnccn2)c1 -0.482%
COc1ccccc1NC(=O)CN1CCCCC1 -7.5%
CC(NC(=O)c1cccc(S(=O)(=O)N(C)c2ccccc2)c1)c1cccnc1 (stereo unspecified) -5.55%
CCOC(=O)c1c(S(=O)(=O)N2CCCC(C(=O)Nc3ccc(F)c(F)c3)C2)c(C)n(C)c1C (stereo unspecified) 8.62%
COc1ccc(C)cc1NC(=O)C(Sc1nnnn1C1CCCC1)c1ccccc1 (stereo unspecified) 2.65%
Cc1noc(C)c1C(=O)Nc1nc2ccccc2s1 -4.42%
COc1cccc(-c2nc(SCC(=O)NC3CCCC3)c(-c3ccccc3)[nH]2)c1 -2.95% and -7.67%
COc1ccc(-n2c(C)cc(C=O)c2C)cc1Cl -4.99%
CCc1cc2c(SC(C)C(=O)NC3CCCC3)ncnc2s1 (stereo unspecified) -5.39%
O=C(NCCC1=CCCCC1)c1cc(S(=O)(=O)N2CCCCC2)ccc1Cl -0.661%
CC(=O)Oc1ccc2c(C)c(CC(=O)NCCc3ccc(Cl)cc3)c(=O)oc2c1OC(C)=O 0.703%
Cc1oc2cc(OCC(=O)N3CCCC3)ccc2c(=O)c1Oc1ccccc1 1.3%
O=C(NCc1csc(-c2cccs2)n1)Nc1ccc(F)cc1F -10.3%
COc1ccc(OC)c(-n2c(C)ccc2-c2ccc(S(C)(=O)=O)cc2)c1 8.39%
CCC(C)(C)NC(=O)/C(=C/c1ccccc1)c1ccccc1 -1.77%
Clc1ccc2[nH]c3c(NCCCN4CCOCC4)ncnc3c2c1 -10.8%
CN1Cc2c(N3CCOCC3)nc(SCc3ccccc3)c(C#N)c2CC1(C)C 13%
CCCCCCCCCCCCS(=O)CC(Cl)CO (stereo unspecified) 4.09%
Cc1cccc(NC(=O)c2nc(S(C)(=O)=O)ncc2Cl)c1 -3.98%
CC1CCc2[nH]c3ccc(C(=O)NC4CCCC4)cc3c2C1 (stereo unspecified) 0.627%
Cc1cccc(/C=N/n2c(-c3ccccc3)n[nH]c2=S)c1O -1.63%
O=C(NCCn1c(-c2ccc(F)cc2)nc2ccccc21)Nc1cc(F)ccc1F -1.41%
O=S(=O)(NCCc1cn2ccccc2n1)c1ccc(-c2ccccc2)cc1 -1.86%
Cc1ccc2c(CN3C(=O)c4ccccc4S3(=O)=O)cc(=O)oc2c1 9%
